Some of the results follow.
Legend:
Assay in all cases: glycan array binding signal (z-score within array); higher = stronger binding
Settings in all cases: glycan notation: IUPAC condensed, linker removed
[1] = target: Fuc(a1-2)[Gal(a1-3)]Gal(b1-4)GlcNAc(b1-3)GalNAc
In short: (§1)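 Glycan array data were curated from 3228 arrays in the Consortium for Functional Glycomics database and kept only where the protein sequence was available. Glycan names were converted to IUPAC-condensed notation, and columns mapping to the same glycan were averaged. The binding signal is a within-array Z-score, averaged across arrays of the same protein sequence at different concentrations or buffers and across linkers. Negative Z-scores can be read as non-binding.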

[2] = target: Fuc(a1-2)[Gal(a1-3)]Gal(b1-4)[Fuc(a1-3)]Glc
In short: as §1

[3] = target: Fuc(a1-2)[Gal(a1-3)]Gal(b1-4)[Fuc(a1-3)]GlcNAc
In short: as §1

[4] = target: Fuc(a1-2)[Gal(a1-3)]Gal(b1-4)[Fuc(a1-3)]GlcNAc(b1-3)GalNAc
In short: as §1

[5] = target: Fuc(a1-2)[Gal(a1-4)]Gal(b1-4)GlcNAc
In short: as §1

[6] = target: Fuc(a1-2)[GalNAc(a1-3)]Gal
In short: as §1

[7] = target: Fuc(a1-2)[GalNAc(a1-3)]Gal(b1-3)GalNAc(a1-3)[Fuc(a1-2)]Gal(b1-4)GlcNAc
In short: as §1

[8] = target: Fuc(a1-2)[GalNAc(a1-3)]Gal(b1-3)GlcNAc
In short: as §1

[9] = target: Fuc(a1-2)[GalNAc(a1-3)]Gal(b1-3)GlcNAc(b1-2)Man(a1-3)[Fuc(a1-2)[GalNAc(a1-3)]Gal(b1-3)GlcNAc(b1-2)Man(a1-6)]Man(b1-4)GlcNAc(b1-4)GlcNAc
In short: as §1

[10] = target: Fuc(a1-2)[GalNAc(a1-3)]Gal(b1-3)GlcNAc(b1-3)GalNAc
In short: as §1

[11] = target: Fuc(a1-2)[GalNAc(a1-3)]Gal(b1-4)Glc
In short: as §1

[12] = target: Fuc(a1-2)[GalNAc(a1-3)]Gal(b1-4)GlcNAc
In short: as §1

[13] = target: Fuc(a1-2)[GalNAc(a1-3)]Gal(b1-4)GlcNAc(b1-2)Man(a1-3)[Fuc(a1-2)[GalNAc(a1-3)]Gal(b1-4)GlcNAc(b1-2)Man(a1-6)]Man(b1-4)GlcNAc(b1-4)GlcNAc
In short: as §1

[14] = target: Fuc(a1-2)[GalNAc(a1-3)]Gal(b1-4)GlcNAc(b1-3)Gal(b1-4)GlcNAc
In short: as §1

[15] = target: Fuc(a1-2)[GalNAc(a1-3)]Gal(b1-4)GlcNAc(b1-3)Gal(b1-4)GlcNAc(b1-3)Gal(b1-4)GlcNAc
In short: as §1

[16] = target: Fuc(a1-2)[GalNAc(a1-3)]Gal(b1-4)GlcNAc(b1-3)GalNAc
In short: as §1

[17] = target: Fuc(a1-2)[GalNAc(a1-3)]Gal(b1-4)[Fuc(a1-3)]GlcNAc
In short: as §1

[18] = target: Fuc(a1-2)[GalNAc(a1-3)]Gal(b1-4)[Fuc(a1-3)]GlcNAc(b1-3)GalNAc
In short: as §1

[19] = target: Fuc(a1-2)[GalNAc(a1-4)]Gal(b1-4)GlcNAc
In short: as §1

[20] = target: Fuc(a1-2)[GalNAc(b1-3)]Gal
In short: as §1

Fuc(a1-3)GlcNAc = target: Fuc(a1-3)GlcNAc
In short: as §1

[21] = target: Fuc(a1-3)[Gal(b1-4)]Glc6S
In short: as §1

[22] = target: Fuc(a1-3)[Gal(b1-4)]GlcNAc
In short: as §1

[23] = target: Fuc(a1-3)[Gal(b1-4)]GlcNAc(b1-2)Man(a1-3)[Fuc(a1-3)[Gal(b1-4)]GlcNAc(b1-2)Man(a1-6)]Man(b1-4)GlcNAc(b1-4)GlcNAc
In short: as §1

[24] = target: Fuc(a1-3)[Gal(b1-4)]GlcNAc(b1-2)Man(a1-3)[Fuc(a1-3)[Gal(b1-4)]GlcNAc(b1-2)Man(a1-6)]Man(b1-4)GlcNAc(b1-4)[Fuc(a1-6)]GlcNAc
In short: as §1

[25] = target: Fuc(a1-3)[Gal(b1-4)]GlcNAc(b1-3)Gal(b1-3)[Fuc(a1-4)]GlcNAc
In short: as §1

[26] = target: Fuc(a1-3)[Gal(b1-4)]GlcNAc(b1-3)GalNAc
In short: as §1

[27] = target: Fuc(a1-3)[Gal(b1-4)]GlcNAc(b1-4)Gal(b1-4)[Fuc(a1-3)]GlcNAc
In short: as §1

[28] = target: Fuc(a1-3)[Gal(b1-4)]GlcNAc(b1-4)Gal(b1-4)[Fuc(a1-3)]GlcNAc(b1-4)Gal(b1-4)[Fuc(a1-3)]GlcNAc
In short: as §1

[29] = target: Fuc(a1-3)[Gal(b1-4)]GlcNAc(b1-6)[Gal(b1-3)GlcNAc(b1-3)]Gal(b1-4)Glc
In short: as §1

[30] = target: Fuc(a1-3)[Gal(b1-4)]GlcNAc6S
In short: as §1

[31] = target: Fuc(a1-3)[Gal3S(b1-4)]GlcNAc
In short: as §1

[32] = target: Fuc(a1-3)[Gal3S(b1-4)]GlcNAc6S
In short: as §1

[33] = target: Fuc(a1-3)[GalNAc(b1-4)]GlcNAc
In short: as §1

Fuc(a1-4)GlcNAc = target: Fuc(a1-4)GlcNAc
In short: as §1

Fuc(b1-3)GlcNAc = target: Fuc(b1-3)GlcNAc
In short: as §1

Gal(a1-2)Gal = target: Gal(a1-2)Gal
In short: as §1

Gal(a1-3)Gal = target: Gal(a1-3)Gal
In short: as §1

Gal(a1-3)Gal(b1-3)GlcNAc = target: Gal(a1-3)Gal(b1-3)GlcNAc
In short: as §1

[34] = target: Gal(a1-3)Gal(b1-3)GlcNAc(b1-2)Man(a1-3)[Gal(a1-3)Gal(b1-3)GlcNAc(b1-2)Man(a1-6)]Man(b1-4)GlcNAc(b1-4)GlcNAc
In short: as §1

[35] = target: Gal(a1-3)Gal(b1-3)GlcNAc(b1-3)GalNAc
In short: as §1

[36] = target: Gal(a1-3)Gal(b1-3)[Fuc(a1-4)]GlcNAc(b1-2)Man(a1-3)[Gal(a1-3)Gal(b1-3)[Fuc(a1-4)]GlcNAc(b1-2)Man(a1-6)]Man(b1-4)GlcNAc(b1-4)GlcNAc
In short: as §1

Gal(a1-3)Gal(b1-4)Glc = target: Gal(a1-3)Gal(b1-4)Glc
In short: as §1

Gal(a1-3)Gal(b1-4)GlcNAc = target: Gal(a1-3)Gal(b1-4)GlcNAc
In short: as §1

[37] = target: Gal(a1-3)Gal(b1-4)GlcNAc(b1-3)GalNAc
In short: as §1

B1: ASAL (Allium sativum), P83886 (protein)
chain: MGRTTSSPKAMMRIATVAAILTILASTCMARNVLTNGEGLYAGQSLDVEQYKFIMQDDCNLVLYEYSTPIWASNTGVTGKNGCRAVMQRDGNFVVYDVNGRPVWASNSVRGNGNYILVLQKDRNVVIYGSDIWSTGTYRRSVGGAVVMAMNGTVDGGSVIGPVVVNQNVTAAIRKVGTGAA
[1]
  glycan array binding signal (z-score): -0.201
[2]
  glycan array binding signal (z-score): -0.26
[3]
  glycan array binding signal (z-score): -0.194
[4]
  glycan array binding signal (z-score): -0.257
[5]
  glycan array binding signal (z-score): -0.251
[6]
  glycan array binding signal (z-score): -0.238
[7]
  glycan array binding signal (z-score): -0.266
[8]
  glycan array binding signal (z-score): -0.298
[9]
  glycan array binding signal (z-score): -0.277
[10]
  glycan array binding signal (z-score): -0.186
[11]
  glycan array binding signal (z-score): -0.235
[12]
  glycan array binding signal (z-score): -0.27
[13]
  glycan array binding signal (z-score): -0.283
[14]
  glycan array binding signal (z-score): -0.203
[15]
  glycan array binding signal (z-score): -0.194
[16]
  glycan array binding signal (z-score): -0.268
[17]
  glycan array binding signal (z-score): -0.214
[18]
  glycan array binding signal (z-score): -0.213
[19]
  glycan array binding signal (z-score): -0.122
[20]
  glycan array binding signal (z-score): -0.217
Fuc(a1-3)GlcNAc
  glycan array binding signal (z-score): -0.238
[21]
  glycan array binding signal (z-score): -0.246
[22]
  glycan array binding signal (z-score): -0.289
[23]
  glycan array binding signal (z-score): -0.228
[24]
  glycan array binding signal (z-score): -0.196
[25]
  glycan array binding signal (z-score): -0.24
[26]
  glycan array binding signal (z-score): -0.26
[27]
  glycan array binding signal (z-score): -0.19
[28]
  glycan array binding signal (z-score): -0.284
[29]
  glycan array binding signal (z-score): -0.329
[30]
  glycan array binding signal (z-score): -0.224
[31]
  glycan array binding signal (z-score): -0.258
[32]
  glycan array binding signal (z-score): -0.222
[33]
  glycan array binding signal (z-score): -0.239
Fuc(a1-4)GlcNAc
  glycan array binding signal (z-score): -0.285
Fuc(b1-3)GlcNAc
  glycan array binding signal (z-score): -0.278
Gal(a1-2)Gal
  glycan array binding signal (z-score): -0.247
Gal(a1-3)Gal
  glycan array binding signal (z-score): -0.285
Gal(a1-3)Gal(b1-3)GlcNAc
  glycan array binding signal (z-score): -0.304
[34]
  glycan array binding signal (z-score): -0.177
[35]
  glycan array binding signal (z-score): -0.206
[36]
  glycan array binding signal (z-score): -0.093
Gal(a1-3)Gal(b1-4)Glc
  glycan array binding signal (z-score): -0.155
Gal(a1-3)Gal(b1-4)GlcNAc
  glycan array binding signal (z-score): -0.268
[37]
  glycan array binding signal (z-score): -0.293

Source: the supplement of paper PMC8728848
